# Some of the results follow.
# B1: Banana lectin (Musa acuminata) (protein)
# chain: MNGAIKVGAHGGNGGSAFDMGPAYRIISVKIFSGDVVDGVDVTFTYYGKTETRHYGGSGGTPHEIVLQEGEYLVGMAGEVANYHGAVVLGKLGFSTNKKAYGPFGNTGGTPFSLPIAAGKISGFFGRGGKFLDAIGVYLEPLEHHHHHH
# Assays:
# Assay in all cases: glycan array binding signal (z-score within array); higher = stronger binding
# Settings in all cases: glycan notation: IUPAC condensed, linker removed; mutation: W10H
# [1] = target: Fuc(a1-2)Gal6S(b1-3)GlcNAc
# In short: (§1)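 Glycan array data came from 3228 arrays in the Consortium for Functional Glycomics database, and only arrays with an available protein sequence were kept. Glycan names were put into IUPAC-condensed notation, and columns mapping to the same glycan were averaged. The binding signal is a within-array Z-score, averaged across arrays of one protein sequence run at different concentrations or buffers and across linkers. A negative Z-score can be read as non-binding.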
# [2] = target: Fuc(a1-2)Gal6S(b1-3)GlcNAc6S
# In short: as §1
# Fuc(a1-2)Gal6S(b1-4)Glc = target: Fuc(a1-2)Gal6S(b1-4)Glc
# In short: as §1
# [3] = target: Fuc(a1-2)Gal6S(b1-4)Glc6S
# In short: as §1
# Fuc(a1-2)[Gal(a1-3)]Gal = target: Fuc(a1-2)[Gal(a1-3)]Gal
# In short: as §1
# [4] = target: Fuc(a1-2)[Gal(a1-3)]Gal(b1-3)GalNAc
# In short: as §1
# [5] = target: Fuc(a1-2)[Gal(a1-3)]Gal(b1-3)GalNAc(b1-3)Gal(a1-4)Gal(b1-4)Glc
# In short: as §1
# [6] = target: Fuc(a1-2)[Gal(a1-3)]Gal(b1-3)GlcNAc
# In short: as §1
# [7] = target: Fuc(a1-2)[Gal(a1-3)]Gal(b1-3)GlcNAc(b1-2)Man(a1-3)[Fuc(a1-2)[Gal(a1-3)]Gal(b1-3)GlcNAc(b1-2)Man(a1-6)]Man(b1-4)GlcNAc(b1-4)GlcNAc
# In short: as §1
# [8] = target: Fuc(a1-2)[Gal(a1-3)]Gal(b1-3)GlcNAc(b1-2)Man(a1-3)[Fuc(a1-2)[Gal(a1-3)]Gal(b1-3)GlcNAc(b1-2)Man(a1-6)]Man(b1-4)GlcNAc(b1-4)[Fuc(a1-6)]GlcNAc
# In short: as §1
# [9] = target: Fuc(a1-2)[Gal(a1-3)]Gal(b1-3)GlcNAc(b1-3)GalNAc
# In short: as §1
# [10] = target: Fuc(a1-2)[Gal(a1-3)]Gal(b1-3)GlcNAc(b1-6)GalNAc
# In short: as §1
# [11] = target: Fuc(a1-2)[Gal(a1-3)]Gal(b1-4)Glc
# In short: as §1
# [12] = target: Fuc(a1-2)[Gal(a1-3)]Gal(b1-4)GlcNAc
# In short: as §1
# [13] = target: Fuc(a1-2)[Gal(a1-3)]Gal(b1-4)GlcNAc(b1-2)Man
# In short: as §1
# [14] = target: Fuc(a1-2)[Gal(a1-3)]Gal(b1-4)GlcNAc(b1-2)Man(a1-3)[Fuc(a1-2)[Gal(a1-3)]Gal(b1-4)GlcNAc(b1-2)Man(a1-6)]Man(b1-4)GlcNAc(b1-4)GlcNAc
# In short: as §1
# [15] = target: Fuc(a1-2)[Gal(a1-3)]Gal(b1-4)GlcNAc(b1-2)Man(a1-3)[Fuc(a1-2)[Gal(a1-3)]Gal(b1-4)GlcNAc(b1-2)Man(a1-6)]Man(b1-4)GlcNAc(b1-4)[Fuc(a1-6)]GlcNAc
# In short: as §1
# [16] = target: Fuc(a1-2)[Gal(a1-3)]Gal(b1-4)GlcNAc(b1-3)GalNAc
# In short: as §1
# [17] = target: Fuc(a1-2)[Gal(a1-3)]Gal(b1-4)GlcNAc(b1-3)[Fuc(a1-2)[Gal(a1-3)]Gal(b1-4)GlcNAc(b1-6)]GalNAc
# In short: as §1
# [18] = target: Fuc(a1-2)[Gal(a1-3)]Gal(b1-4)GlcNAc(b1-6)GalNAc
# In short: as §1
# [19] = target: Fuc(a1-2)[Gal(a1-3)]Gal(b1-4)[Fuc(a1-3)]Glc
# In short: as §1
# [20] = target: Fuc(a1-2)[Gal(a1-3)]Gal(b1-4)[Fuc(a1-3)]GlcNAc
# In short: as §1
# [21] = target: Fuc(a1-2)[Gal(a1-3)]Gal(b1-4)[Fuc(a1-3)]GlcNAc(b1-3)GalNAc
# In short: as §1
# [22] = target: Fuc(a1-2)[Gal(a1-4)]Gal(b1-4)GlcNAc
# In short: as §1
# [23] = target: Fuc(a1-2)[GalNAc(a1-3)]Gal
# In short: as §1
# [24] = target: Fuc(a1-2)[GalNAc(a1-3)]Gal(b1-3)GalNAc(a1-3)[Fuc(a1-2)]Gal(b1-4)GlcNAc
# In short: as §1
# [25] = target: Fuc(a1-2)[GalNAc(a1-3)]Gal(b1-3)GalNAc(b1-3)Gal(a1-4)Gal(b1-4)Glc
# In short: as §1
# [26] = target: Fuc(a1-2)[GalNAc(a1-3)]Gal(b1-3)GlcNAc
# In short: as §1
# [27] = target: Fuc(a1-2)[GalNAc(a1-3)]Gal(b1-3)GlcNAc(b1-2)Man(a1-3)[Fuc(a1-2)[GalNAc(a1-3)]Gal(b1-3)GlcNAc(b1-2)Man(a1-6)]Man(b1-4)GlcNAc(b1-4)GlcNAc
# In short: as §1
# [28] = target: Fuc(a1-2)[GalNAc(a1-3)]Gal(b1-3)GlcNAc(b1-2)Man(a1-3)[Fuc(a1-2)[GalNAc(a1-3)]Gal(b1-3)GlcNAc(b1-2)Man(a1-6)]Man(b1-4)GlcNAc(b1-4)[Fuc(a1-6)]GlcNAc
# In short: as §1
# [29] = target: Fuc(a1-2)[GalNAc(a1-3)]Gal(b1-3)GlcNAc(b1-3)GalNAc
# In short: as §1
# [30] = target: Fuc(a1-2)[GalNAc(a1-3)]Gal(b1-3)GlcNAc(b1-6)GalNAc
# In short: as §1
# [31] = target: Fuc(a1-2)[GalNAc(a1-3)]Gal(b1-4)Glc
# In short: as §1
# [32] = target: Fuc(a1-2)[GalNAc(a1-3)]Gal(b1-4)GlcNAc
# In short: as §1
# [33] = target: Fuc(a1-2)[GalNAc(a1-3)]Gal(b1-4)GlcNAc(b1-2)Man
# In short: as §1
# [34] = target: Fuc(a1-2)[GalNAc(a1-3)]Gal(b1-4)GlcNAc(b1-2)Man(a1-3)[Fuc(a1-2)[GalNAc(a1-3)]Gal(b1-4)GlcNAc(b1-2)Man(a1-6)]Man(b1-4)GlcNAc(b1-4)GlcNAc
# In short: as §1
# [35] = target: Fuc(a1-2)[GalNAc(a1-3)]Gal(b1-4)GlcNAc(b1-2)Man(a1-3)[Fuc(a1-2)[GalNAc(a1-3)]Gal(b1-4)GlcNAc(b1-2)Man(a1-6)]Man(b1-4)GlcNAc(b1-4)[Fuc(a1-6)]GlcNAc
# In short: as §1
# [36] = target: Fuc(a1-2)[GalNAc(a1-3)]Gal(b1-4)GlcNAc(b1-3)Gal(b1-4)GlcNAc
# In short: as §1
# [37] = target: Fuc(a1-2)[GalNAc(a1-3)]Gal(b1-4)GlcNAc(b1-3)Gal(b1-4)GlcNAc(b1-3)Gal(b1-4)GlcNAc
# In short: as §1
# [38] = target: Fuc(a1-2)[GalNAc(a1-3)]Gal(b1-4)GlcNAc(b1-3)GalNAc
# In short: as §1
# [39] = target: Fuc(a1-2)[GalNAc(a1-3)]Gal(b1-4)GlcNAc(b1-3)[Fuc(a1-2)[GalNAc(a1-3)]Gal(b1-4)GlcNAc(b1-6)]GalNAc
# In short: as §1
# [40] = target: Fuc(a1-2)[GalNAc(a1-3)]Gal(b1-4)GlcNAc(b1-6)GalNAc
# In short: as §1
# [41] = target: Fuc(a1-2)[GalNAc(a1-3)]Gal(b1-4)[Fuc(a1-3)]GlcNAc
# In short: as §1
# [42] = target: Fuc(a1-2)[GalNAc(a1-3)]Gal(b1-4)[Fuc(a1-3)]GlcNAc(b1-3)GalNAc
# In short: as §1
# [43] = target: Fuc(a1-2)[GalNAc(a1-4)]Gal(b1-4)GlcNAc
# In short: as §1
binder,measurement,setting,value
B1,glycan array binding signal (z-score),[1],-0.194
same,glycan array binding signal (z-score),[2],-0.145
same,glycan array binding signal (z-score),Fuc(a1-2)Gal6S(b1-4)Glc,-0.195
same,glycan array binding signal (z-score),[3],-0.169
same,glycan array binding signal (z-score),Fuc(a1-2)[Gal(a1-3)]Gal,-0.165
same,glycan array binding signal (z-score),[4],-0.151
same,glycan array binding signal (z-score),[5],-0.115
same,glycan array binding signal (z-score),[6],-0.151
same,glycan array binding signal (z-score),[7],-0.027
same,glycan array binding signal (z-score),[8],0.161
same,glycan array binding signal (z-score),[9],-0.17
same,glycan array binding signal (z-score),[10],-0.147
same,glycan array binding signal (z-score),[11],-0.175
same,glycan array binding signal (z-score),[12],-0.172
same,glycan array binding signal (z-score),[13],-0.169
same,glycan array binding signal (z-score),[14],-0.132
same,glycan array binding signal (z-score),[15],0.24
same,glycan array binding signal (z-score),[16],-0.211
same,glycan array binding signal (z-score),[17],-0.183
same,glycan array binding signal (z-score),[18],-0.146
same,glycan array binding signal (z-score),[19],-0.137
same,glycan array binding signal (z-score),[20],-0.168
same,glycan array binding signal (z-score),[21],-0.15
same,glycan array binding signal (z-score),[22],-0.211
same,glycan array binding signal (z-score),[23],-0.143
same,glycan array binding signal (z-score),[24],-0.191
same,glycan array binding signal (z-score),[25],-0.156
same,glycan array binding signal (z-score),[26],-0.171
same,glycan array binding signal (z-score),[27],-0.144
same,glycan array binding signal (z-score),[28],0.421
same,glycan array binding signal (z-score),[29],-0.184
same,glycan array binding signal (z-score),[30],-0.161
same,glycan array binding signal (z-score),[31],-0.196
same,glycan array binding signal (z-score),[32],-0.175
same,glycan array binding signal (z-score),[33],-0.167
same,glycan array binding signal (z-score),[34],-0.046
same,glycan array binding signal (z-score),[35],0.133
same,glycan array binding signal (z-score),[36],-0.186
same,glycan array binding signal (z-score),[37],-0.199
same,glycan array binding signal (z-score),[38],-0.145
same,glycan array binding signal (z-score),[39],-0.176
same,glycan array binding signal (z-score),[40],-0.215
same,glycan array binding signal (z-score),[41],-0.161
same,glycan array binding signal (z-score),[42],-0.14
same,glycan array binding signal (z-score),[43],-0.151

# Source: the supplement of paper PMC8728848
